# Test results reported in the supplement of paper PMC11417369.
# ± gives the standard deviation of the averaged measurements. Some of the results follow.
# System: PfAP2-EXP AP2 domain (GST-tagged)
# Test: gcPBM binding intensity (ln(normalized median fluorescence intensity)); higher = stronger DNA binding
# In short: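 Each value is the highest Masliner-normalised natural-log median intensity across replicate spots of either orientation of a probe. The probes were primer-extended double-stranded 36-bp intergenic genomic sequences on an Agilent 4 × 180k array, alongside negative controls, exposed for 1 h to GST-tagged P. falciparum DNA-binding domains expressed in E. coli. Bound protein was picked up with Alexa488 anti-GST antibody and scanned at 488 nm.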
row,Sequence,gcPBM binding intensity (ln)
1,TAACTTAATTTTAATGCACACAATTTATATATATAT [CACACA_site6022],9.9 ± 0.11
2,TATATATATAAATACAGTACATATATAATATTTTGA [XGTACX_site637],8.6 ± 0.2
3,ATTATATATATCAGGTGTACGTAAAAAAAATGGACG [XGTACX_site1028],9.26 ± 0.46
4,TTTTTTTTTTTTTTTACACACTCCAATAAAAAAGAA [CACACA_site2119],8.3 ± 0.45
5,TTTTTTTATTAATGTAGTACAATATAATGTTATATT [XGTACX_site2295],8.54 ± 0.29
6,GAGGTCTTTTTTAATGTGCACATATATATATATATA,10.3 ± 0.25
7,TAATTTATAAATATAATATTTATGTATATGATGTTT [CACACA_negctrl_site464],8.17 ± 0.4
8,TATAAAAATATATTTACACACTATAAATATCGAAAG [CACACA_site6896],8.49 ± 0.38
9,TACAACTTAATATGTACACACAAATATATATATATA [CACACA_site5138],9.99 ± 0.23
10,ATTCATCCAATAATGTGAATTATCATGATAAACTTA [TGCATGCA_negctrl_site406],8.26 ± 0.43
11,TTTATAAATAAACACACACACATGTGAACATAAAAA [CACACA_site5110],8.82 ± 0.44
12,GATACCTATAGACACACACACATACCTATATACATA [CACACA_site7586],8.79 ± 0.3
13,GAAATACATTTTAAAAAATAAGTAATTATAAAATAA [TGCATGCA_negctrl_site303],8.21 ± 0.38
14,ATTATTCTATATGAAACATGCATACATTTGTATTTT [TGCATGCA_site823],8.54 ± 0.29
15,ATATATGTAAATGAATGTACATTATTTTATATATTA [XGTACX_site8460],8.39 ± 0.34
16,ATCAAAATTGTCATTACACACCTTTATTTTTAGAAT [CACACA_site1813],8.56 ± 0.35
17,TCCAATAATTTATAAAAAAAAAAAGGGAAAATGTAT [TGCATGCA_negctrl_site492],8.28 ± 0.26
18,TTGGATTTTTCCTATGAACACACGGGGTTACAATTA [CACACA_site449],8.4 ± 0.45
19,TTAATATGAGAATAATGTACAAGAAAATATTACATA [XGTACX_site6609],8.57 ± 0.47

row,Sequence,gcPBM binding intensity (ln)
1,ATATATTTATTATTAACATGCAATCATTATATATAA [TGCATGCA_site404],8.47 ± 0.45
2,AAAATAATAAAAAACTGTACGAATTAAAAATTAACA [XGTACX_site8454],8.64 ± 0.22
3,CCTAATTTTATTAGGGTGCATTTTTAGTTAAATATA,8.48 ± 0.27
4,ACAATATATAAAATATGTACATAATATATATAATGA [XGTACX_site8731],8.52 ± 0.29
5,ATCCACAAATTAACAAGTACATATATATATATATAT [XGTACX_site1267],10.2 ± 0.26
6,TAAGTTATATGTACTACACACGTACACAAAATAAGA [CACACA_site9237],8.82 ± 0.3
7,TGATGAAAATTTTTCTGTACAAAAAGTATGAAGGTA [XGTACX_site8901],8.88 ± 0.38
8,ATTTATTTGTTTATTTGTTTATTTGTTTATTTGTTT [CACACA_negctrl_site1386],8.72 ± 0.38
9,AATTTAATATAATGCACACATAAAAAAAAATTCAAA [CACACA_site2062],8.64 ± 0.071
10,ATGAAAACCATGACGGGTACTCATTTATTATTTTAT [XGTACX_site6724],8.45 ± 0.46
11,TTAAGAATCTATACTAGTACATATATGTATACAAGC [XGTACX_site8025],8.74 ± 0.35
12,TATATATATATGTGTAGTACAACAAATATGAAAAAT [XGTACX_site4059],10.035 ± 0.007
13,ATTGTGTTAATAAAATGTACATTTTCTCTACTTTAA [XGTACX_site1199],8.8 ± 0.35
14,TGTAGAACAAAAAATTGTACATATTTGTAAAAAAAA [XGTACX_site3850],8.47 ± 0.35
15,TATATATAGAAACACACACACATATATATATATATA [CACACA_site773],10.1 ± 0.43
16,GTATATATATATAAAAGTACATGTTATGAAAAAAAA [XGTACX_site5410],8.85 ± 0.47
17,TTTTTTCTCAAAAAAAAAACCTATGGTTATTAAGAT [XGTACX_negctrl_site534],8.18 ± 0.45
18,ATTAAGTATATTTCTGCACACAAAAAAAAAAACCAA [CACACA_site9342],8.55 ± 0.41
19,TTCTAAACACATTGACAAATTAATATATTACAGCAA [GTGCAC_negctrl_site121],8.56 ± 0.48

row,Sequence,gcPBM binding intensity (ln)
1,TTATAATTCTATTATCTGTTCTTTTTATATTTTTTT [CACACA_negctrl_site855],8.53 ± 0.4
2,TTATTTTTCAATGAAAAGGATTATATATATATATAT [CACACA_negctrl_site757],10.2 ± 0.13
3,TATAAGAAAAATAACACACACATAAACATAAATACA [CACACA_site5536],9.06 ± 0.35
4,AAAAAAAAAAAAAAATGTACATAAAAATGATATAAT [XGTACX_site4096],8.7 ± 0.55
5,AAAATTTATAGTATGGTGCATAAAAATATATATATA,9.86 ± 0.23
6,GTAAATATAAACTCAGCACACAAACATATATATGTC [CACACA_site9326],8.79 ± 0.39
7,TTAAATAAAAGGTTTAGTACTTAAAATAAGAAATGA [XGTACX_site6341],8.54 ± 0.38
8,TTATATATATTTAAAAAAATAACATAAATAAATAAA [CACACA_negctrl_site347],8.32 ± 0.41
9,TTTTATTTATCTTAATGTACACATTTATATATATAT [XGTACX_site8588],9.55 ± 0.11
10,TATAATAATTAAAAGTGTACTAAATTTTTACATATA [XGTACX_site2523],8.2 ± 0.3
11,CACTTTTTTTTTTACTGTACATATACAAATTAAAAA [XGTACX_site1565],8.67 ± 0.4
12,TGGGTGTAGAACAATTGTACTTTGTAAAAATATAAG [XGTACX_site8464],8.81 ± 0.41
13,TTTTTTTTCAATGGTTGTACAAAGTAAAACAACAAA [XGTACX_site1582],8.46 ± 0.26
14,ATCCATCTTTTAATTTGTACTTATTCTTTTTTCTTT [XGTACX_site5299],9 ± 0.67
15,ATTAGTTTTATATATAGTACATATAATTTTGAAGGT [XGTACX_site7445],9.36 ± 0.52
16,ATATATATATGTAATAGTACATATGATAGTTTGTCA [XGTACX_site1545],9.495 ± 0.064
17,TATTCATAATTTTAATGTACAAAATGGTTTGTAATA [XGTACX_site8493],8.15 ± 0.35
18,TTGTAATTTATTCAAACACACAATTTGGACCTTTTT [CACACA_site1063],8.3 ± 0.44
19,AAAGATAAATTAAAAAGTACATATTTATTCAATGTA [XGTACX_site8543],8.31 ± 0.2
